Publication PMC4336329 (PLoS ONE, 2015)
The campaign covered roughly 310,000 compounds. About 2,200 (0.71%) showed an effect of 50% or more. Effects have a minus sign here. The list shows a part of the results.

molecular target: human ether-à-go-go-related gene (hERG) potassium channel (human, UniProt Q12809); experiment: primary screen, population patch clamp on CHO cells stably expressing hERG
Sequence (Q12809 whole entry, looked up): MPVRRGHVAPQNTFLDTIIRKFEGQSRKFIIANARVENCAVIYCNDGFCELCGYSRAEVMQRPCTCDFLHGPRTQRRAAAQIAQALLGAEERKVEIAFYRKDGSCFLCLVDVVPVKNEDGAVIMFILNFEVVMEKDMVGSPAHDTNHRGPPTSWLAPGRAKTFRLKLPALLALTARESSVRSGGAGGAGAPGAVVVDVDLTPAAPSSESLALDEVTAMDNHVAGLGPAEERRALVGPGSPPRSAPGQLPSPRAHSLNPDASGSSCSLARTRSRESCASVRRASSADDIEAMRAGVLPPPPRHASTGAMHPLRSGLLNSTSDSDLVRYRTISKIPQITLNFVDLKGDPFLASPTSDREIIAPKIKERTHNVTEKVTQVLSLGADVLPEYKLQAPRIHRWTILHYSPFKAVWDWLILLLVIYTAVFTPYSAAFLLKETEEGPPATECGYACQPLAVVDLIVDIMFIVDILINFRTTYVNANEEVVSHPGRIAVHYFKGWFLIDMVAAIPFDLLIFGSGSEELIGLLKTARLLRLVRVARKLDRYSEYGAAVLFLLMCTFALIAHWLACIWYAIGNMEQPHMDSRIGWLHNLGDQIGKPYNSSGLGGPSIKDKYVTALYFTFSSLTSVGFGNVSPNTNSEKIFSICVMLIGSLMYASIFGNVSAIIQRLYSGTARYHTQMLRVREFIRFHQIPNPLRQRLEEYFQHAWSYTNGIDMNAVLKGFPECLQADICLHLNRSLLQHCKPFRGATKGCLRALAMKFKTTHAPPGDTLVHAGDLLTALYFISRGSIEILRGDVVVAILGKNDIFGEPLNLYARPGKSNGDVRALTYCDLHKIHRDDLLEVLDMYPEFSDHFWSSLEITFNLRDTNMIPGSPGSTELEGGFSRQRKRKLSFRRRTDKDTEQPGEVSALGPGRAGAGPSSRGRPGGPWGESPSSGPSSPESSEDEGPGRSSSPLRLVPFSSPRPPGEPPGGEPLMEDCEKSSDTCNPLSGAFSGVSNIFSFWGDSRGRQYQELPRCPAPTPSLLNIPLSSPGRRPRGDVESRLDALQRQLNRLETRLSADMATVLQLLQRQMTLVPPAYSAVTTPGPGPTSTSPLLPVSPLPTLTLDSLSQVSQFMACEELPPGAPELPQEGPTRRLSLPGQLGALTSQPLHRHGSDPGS

SMILES	hERG current change (%, negative = inhibition) at 1uM
COc1cc(CNCCNC(=O)c2nonc2N)ccc1OCc1ccc(Cl)nc1.Cl	-16.9%
CC1CCN(c2oc(-c3ccco3)nc2S(=O)(=O)c2ccccc2)CC1	8.03%
CCS(=O)(=O)NCCc1cc2ccc(C)cc2[nH]c1=O	-19.8%
O=S(Cc1ccc(Br)cc1)Cc1nnc(SCc2c(Cl)cccc2Cl)n1-c1ccccc1 (stereo not shown)	-9.62%
O=[N+]([O-])c1ccccc1S(=O)(=O)Nc1ccc(S(=O)(=O)Nc2nccs2)cc1	8.63%
CCc1ccc(NC(=O)c2ccccc2Br)cc1	9.42%
COc1ccc2c(C)c(C(=O)NCC(C)O)oc2c1OC (stereo not shown)	6.93%
O=P(O)(O)CP(=O)(O)O	3.83%
NC(=O)OCC(O)COc1ccc(Cl)cc1 (stereo not shown)	9.22%
CCCC1(c2ccccc2)NC(=O)N(CC(=O)Nc2cc(C)ccc2OC)C1=O (stereo not shown)	8.84%
Fc1cc(F)cc(-c2oncc2-c2nnnn2-c2ccccc2)c1	9.89%
CCOc1ccc(CCNC(=O)Cn2nc(C)c3c(C)n(-c4ccccc4)nc3c2=O)cc1OCC	8.15%
C=CCn1c(SC(CCO)C(=O)NCc2ccco2)nc2sc3c(c2c1=O)CCC3 (stereo not shown)	5.06%
CN(C(=O)CSc1nnc(COc2ccccc2F)n1N)C1CCS(=O)(=O)C1 (stereo not shown)	12.7%
CC(C)(C)c1ccc(C2SCC(=O)N2c2cccc(C(=O)O)c2)cc1 (stereo not shown)	16%
NS(=O)(=O)c1cccc(NC(=O)c2cccnc2Oc2ccccc2)c1	10.6%
O=c1[nH]c(-c2ccc(Cl)cc2)cs1	-1.9%
CCOC(=O)NN=C1CCC(c2ccccc2)CC1 (stereo not shown)	11.7%
COc1ccc(/C=C/C(=O)NCCOc2ccc(C)cc2)cc1	10.5%
CCOc1cccc(C(=O)NC(=S)Nc2cccnc2)c1	1.86%
Nn1c(Cc2cccc3ccccc23)nnc1SCC(=O)NCC1CCCO1 (stereo not shown)	0.675%
CCc1nc(OCc2ccco2)c2sc3nc4c(cc3c2n1)COC(C)(C)C4	6.8%

SMILES	hERG current change (%, negative = inhibition) at 1uM
CCOC(=O)CSc1nnc(CNC(=O)c2cc(OC)c(OC)c(OC)c2)n1C	3.51%
O=C1c2cccc3cccc(c23)C(=O)N1CC1CCN(S(=O)(=O)c2ccc(F)cc2)CC1	5.7%
Cc1c(N=C2Nc3cccc4cccc2c34)c(=O)n(-c2ccccc2)n1C	13.6%
CCOC(=O)C1CCCN(C(=O)c2ccc(S(=O)(=O)N3CCCC3)cc2)C1 (stereo not shown)	16%
CS(=O)(=O)c1ccc(C(=O)NNC(=O)c2ccccc2-n2cccc2)cc1	15.4%
CCC(=O)Nc1ccc2c(c1)nc(CCN1CCCCC1)n2C	-0.837%
COc1ccc(NC(=O)CCn2c(=O)c3cccn3c3ccccc32)c(OC)c1	12.6%
Cc1c(C(=O)Nc2cccc(-c3nnc4n3CCCCC4)c2)oc2ccccc12	5.68%
CC(C)(C)NC(=O)CSc1nc2ccccc2c(=O)[nH]1	13.9%
O=C(C[n+]1cccc(CNC(=O)c2ccc(OC(F)F)cc2)c1)Nc1cccc(C(F)(F)F)c1.[Cl-]	6.44%
CCOc1cccc(C(=O)N(Cc2ccco2)C2CCS(=O)(=O)C2)c1 (stereo not shown)	2.6%
O=C(O)CCc1ccc(-c2cccs2)n1CC(=O)Nc1ccccc1C(F)(F)F	15.7%
O=C(CNS(=O)(=O)c1ccccc1)N1CCc2ccccc2C1	11.4%
CC12COC3(C(=O)Nc4nccs4)CC1CCC32C (stereo not shown)	9.81%
COc1ccc(N(CC(=O)O)S(C)(=O)=O)cc1OC	7.4%
COc1cccc(CNC(=O)C2CC(=O)N(C3CCCCCCC3)C2)c1 (stereo not shown)	19.6%
Cc1sc2ncn(CC(=O)NCc3ccccn3)c(=O)c2c1S(=O)(=O)N1CCOCC1	9.35%
CCOC(=O)C1=C(C)N=C2SCCC(=O)N2C1c1cccs1 (stereo not shown)	-11.6%
CCOC(=O)C1=C(C)N=C2SC(C)C(=O)N2C1c1cccc(F)c1 (stereo not shown)	-2.5%
Cc1ccc(NC(=O)Cn2cc3c(n2)CCC(C)C3)cc1 (stereo not shown)	6.29%
N#C/C(=C(/O)c1ccccc1F)c1nc2cc(C(F)(F)F)ccc2s1	15.6%
